Laboratory results from PubChem BioAssay AID1671194 (National Center for Advancing Translational Sciences (NCATS), 2021).
The campaign covered roughly 140,000 compounds. About 240 (0.17%) were called active. The inconclusive results got no clear call from the source; some entries with a clear call stand among them for comparison. Calls follow the shape of the dose curve; as a rule, active = well fitted inhibition curve with a large enough effect; inconclusive = small, poorly fitted or top-dose-only effect; inactive = no such curve, though single readings can be large or run the other way. Potencies beside an inconclusive call are fits to weak or partial responses and may not hold up.

Test: Primary qHTS assay for inhibitors of alpha-synuclein gene (SNCA) expression; also: nearly all actives have a fitted effect of over 45% in size;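 as to activity change, negative = inhibition: plate controls were DMSO cells for no effect and cell-free wells for full effect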
Conditions: HEK-293 SNCA-luciferase knock-in, luminescence, 24 h; activity change, negative = inhibition: at 57.2 µM (top of the series) unless noted
Potency is read from the fitted curve at half-maximal effect; tags tell the direction and shape of the fitted curve.

Potency, inconclusive:
CCNc1ncc2nc(-c3cn(C)c4ccccc34)c(=O)n(-c3ccc(OC)cc3)c2n1 3.16 µM [inhibitor, partial curve, poor fit]
O=C(c1ccc(Cl)cc1)N1CCC2(C1)C(=O)N(CCc1ccccc1)c1ccccc12 (configuration not stated) 10 µM [inhibitor, partial curve, poor fit]
Cc1nc2c(C(=O)NC(C)c3ccccc3)cnn2c(C)c1Cc1ccccc1 (configuration not stated) 22.4 µM [inhibitor, single point]
C[C@@]12O[C@@H](C[C@]1(O)CO)n1c3ccccc3c3c4c(c5c6ccccc6n2c5c31)CNC4=O 27.1 µM [inhibitor, partial curve, poor fit]
Cc1ccccc1-c1cnc2[nH]cc(CC(=O)NCCN(C)C)c2c1 35.5 µM [inhibitor, partial curve, poor fit]
CN1C(=O)c2ccccc2Sc2ccc(NC(=O)c3ccc(C#N)cc3)cc21 39.8 µM [inhibitor, single point]
O=C(Nc1cccc(C(F)(F)F)c1)O[C@@H]1CO[C@H]2[C@@H]1OC[C@@H]2Nc1nccc(-c2ccc(-c3ccccc3)cc2)n1 20 µM [inhibitor, single point]
Cc1cccc(NS(=O)(=O)c2ccc3c(c2)CCCN3C(=O)C2CCC2)c1C 12.6 µM [inhibitor, partial curve, poor fit]
COc1ccc(NC(=O)CN(c2ccc(C)cc2)S(=O)(=O)c2cccs2)cc1 3.16 µM [inhibitor, single point]
O=C(c1cn[nH]c1)N1CC2(CN(Cc3cccc(Cl)c3)CC2COc2ccccc2)C1 (configuration not stated) 56.2 µM [inhibitor, single point]
COc1ccc(CC(=O)N2Cc3[nH]cnc3C[C@H]2c2nc(-c3ccc4ccccc4c3)no2)cc1 35.5 µM [inhibitor, single point]

Activity change, negative = inhibition, inactive:
Cc1ccccc1C(=O)N1CCN(C(=O)c2cccc(-c3ccccn3)c2)CC1 9.1%
COc1ccc(-c2ccnc3nc(C(C)C)nn23)cc1 -19.4%
O=C(NCC1Cn2cccc2CN1Cc1ccccc1)NC1CCCCC1 (configuration not stated) -2.32%
COc1ccc(-c2nc3c(c(-c4ccccc4)n2)CN(C(=O)c2ccc(F)cc2)CC3)cc1 -26.3%
O=C(Nc1ccc(S(=O)(=O)N(Cc2ccccc2)c2ccccc2)cc1)c1ccc(F)cc1 19.5%
Cc1ccc(C(=O)NC2CCCN(Cc3ccc(-c4cc(C)cc(C)c4)cc3)C2)cc1 (configuration not stated) -12.8%
